Measurements: the supplement of paper PMC10126150
Sequences with one replicate were seen in a single cluster, so their values are uncertain.

System: ATP
Assay: switch fluorescence ratio, 500 uM ATP over buffer (Cy3 cluster intensity, sum of 5 cycles each) (fold (ratio)); higher = stronger signal-on switching upon ATP binding; sequences stand for … in TCGTCGGCAGCGTCAGATGTGTATAAGAGACAGTTTTTTTTTTTTTTTTTTTTTTTTT…TC
Conditions: aptamer strand: ATP DNA aptamer (quencher-CACCTGGGGGAGTATTGCGGAGGAAGG + anchor), 100 nM annealed; ATP concentration: 500 uM; one replicate
In short: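 Per cluster, summed Cy3 intensity from the target cycles was divided by that from the buffer cycles to give the fluorescence ratio, then averaged per switch-domain sequence. Clusters outside 100-1000 RFU were excluded. The Cy3-labelled switching-strand clusters, on a modified Illumina MiSeq flow-cell, were annealed to 100 nM quencher-labelled ATP aptamer and imaged in selection buffer, then after 15 min with 500 uM ATP at 22 °C, for five cycles with NaOH stripping and re-annealing between them.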
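Also: ATP exposure 15 min at 22 °C before imaging.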

Sequence	switch fluorescence ratio
GCGCTGAGAG	1.03
GTTTCAGAG	0.991
AACTAGATGT	1.01
TTCGATGATC	0.977
GTAGGGGT	0.978
GGAGGGACAC	1
GCTAATATGC	0.982
TAACAGCATG	1.04
ACGGGATCCG	1.06
AATGGCCCGG	0.997
TAAGTCATGT	0.946
TTTTAGCTGT	1.06
CCACTTTGAA	1
GAGACTCCCC	3.59
TTCGGATCCT	1.02
GGACATGCGT	1.05
CCGTACCGGC	1.06
TAGTTATAAG	0.983
TCCGGTGAAT	1.04
AAAGCTCATA	1
TCGGGCATTG	0.993
GATACTTTTC	1.01
TTGTGCCACT	0.95
CAGAGACAGC	0.994
AACGCGGGTG	1.06
CAGGGGGAC	1.07

Sequence	switch fluorescence ratio
GACGCATATT	3.33
ACAATCGCG	1
GATTGGGGAC	0.979
TCGCAACCTT	1.63
ATCTATACGT	1.03
CTTATACTAG	1.05
TTTAGAAATT	0.981
GTGTAGGCAG	1.02
CCTATTGTCG	0.985
CGGTTTGGAA	0.982
AGATCGATT	1.02
GTTTCATCT	0.99
GCAAGTAAAG	0.992
TTTTAGTCCC	0.984
AGCTACGCTT	1.02
CTCCTCTAAG	1.14
GTTATATATA	0.948
GGCCTCTAGT	1
AGGCGGCTTT	1.03
TCCTCGGTCA	2.04
GAGGGATGCG	1.01
CAGACCGCGC	1.38
GGTAAGTCCG	1.01
CAAACATGGA	0.988
CATACTTTAC	1.38
AAGGACTTG	1.01

Sequence	switch fluorescence ratio
GCGGAGGCAA	1.07
GTGTCTTAGA	0.953
TAGGTCCGGG	1
GGGCGGGTAA	0.993
GACCAGAGGA	0.98
AAGGATGGA	0.982
AGTCGGAGGC	1.08
CAGCCGCTCG	1.23
CGGTAATGAA	1
GGGAAAATGA	1
ATATGACAGG	0.976
GATAATACGG	1.09
TCGTCGGGAG	0.995
TTTCGGCACG	0.963
TTGATAGTGC	1
CTTCTGGCTA	1.07
GTTCATAGCA	1.02
TGGGCTACCG	1.02
GGGTCGTCCG	1.01
CCATATTATG	1.01
AATCTCTGGA	0.998
CGATAGATCG	0.981
CTGATTGACT	1.01
ACCTACCTGT	1.21
AGGTAGGCTT	0.957
TGATGTATGT	0.95

Sequence	switch fluorescence ratio
ATCTAGGCTA	0.982
GGAAGGTTAA	0.983
GAAGGCACAG	1.04
GCAGGCGACG	0.975
GGCCATGGTT	0.965
TCTGGGAACC	1
TCATTTTTCG	1
TAGCGCGTTG	1
ACGGTCCTGT	1.01
ATTCCCTTAT	0.97
CCATGAGTTA	1.01
CAATCCAGGT	1.34
GCCTATAGG	1.01
GAGCACACAT	1.1
TTGCACAATG	0.983
CACAAGCGAC	1.51
CAACGGGGAT	0.999
TTATCGGCTC	0.932
TCAATAACGT	1.03
CTTTTTTGCA	0.965
TAGAGCAGTC	1.2
CAATCTTAGG	1.02
AGCCCCACAC	1.28
GGAGTTCCTC	1.01
AGCTATGGCT	0.981
CATATAGCGG	0.989

Sequence	switch fluorescence ratio
GGCGAACGAA	1.09
GGCTCAGCTC	0.99
GTAGAGGGTC	0.968
TAAGACAGGT	0.997
GAAAGACAGT	0.931
TTCCTGGTAT	1.03
CATTTGGTA	0.986
TCTGGGGA	1.12
AACGTCGCTA	1.02
ACTGGCACGC	1.13
AGGGTCCTT	1.01
TTGACAACCA	1.12
AATTCGATT	1.01
TTTCGGCTGC	0.978
GGGTGATCTG	1.04
AAAAACCCCG	1.11
TGTTTGCGGG	1.04
TCCTGGGCG	1.07
CGTGCATAAT	1.01
TACGAATGTT	1.01
TAAGAACGGA	1
GGCTTAGAAG	1.04
AGGAGTCAAT	1.13
AGGAGCGTTT	1.01
ATACACCCTT	1.19
GTTCACCTC	0.979

Sequence	switch fluorescence ratio
GAAAAGGCGT	1.03
TGTAGTAAGC	1.16
CGTCTATTCG	0.988
CGCGAACAGG	1.08
GTCCGTCTT	0.968
ACTATTGTCT	0.966
TATTGATTAT	0.977
GTCTGACGTA	1.07
GCAGGTGCGT	1.11
AAGAAAACAG	0.98
CCGCTGATCG	1.9
TATGCATAGT	0.999
GATTGCTAT	0.958
GGATTTACAT	1.03
GTTTGTGTGC	0.987
TTCCCGGACA	1.02
TGCACCAAAT	1.21
ATGTTGAATT	0.98
CATTTCGCTT	1.03
AATTGGTGC	1.07
GGTTAAAGCT	1.1
GAAGCCGTAG	0.945
GGTTTTTAGT	1
CAATGGGTAA	0.97
TGTTCGTA	0.965
TTACCCGGAG	1.04

Sequence	switch fluorescence ratio
CCTTGGCAGT	5.75
AAACCAGGCC	1.05
AAAGGCTTAG	1.02
CTCGATCCGC	1.51
GTTTCAGGAT	1.02
ACCAGCCGGT	0.959
GGCCGGTGTC	1
GAGTCGCACC	1.02
ATATTATCCG	0.99
CGGCTCACAT	1
GTTAATTGCT	0.973
AGCCCACTAC	1.39
GCTGCACTGA	1.06
ATATAAATGG	1.04
ACAGGCGGAA	0.987
CCTTGTTTGA	0.977
TCCCCATTGG	1.26
CCGGCGGCCG	1.03
GACATCATCG	1.02
ATGGGAGAGG	1.02
ATCGCTAGGC	1.24
TGGCGCCGTT	1.05
TGCAAATTAC	1.39
GACTAGTGCG	1
CATGCTAGCG	0.989
CCCGGAGGAT	0.996

Sequence	switch fluorescence ratio
ACGGGAAGAG	1
TCGCCGGGGT	0.976
CTGGTGAACA	1
GACTCACGTT	1.41
TATCTCTCTA	1.01
GAAGGGTCCC	1.05
ACCTATCGTT	1.03
TGGATTTATA	1.02
TTTCATGTT	1.02
TCTTTTGGCT	1.05
GGGTGGGGT	0.962
CTGTGGAT	1.09
ATGAAACTAG	0.901
GGTGTAATGA	1.01
TCAGTGCGTC	0.941
TCGGCCTCAT	1.04
ACATCCGCGG	1.36
GATGTCCGCT	1.13
GGAGCGAACC	1.53
